Data taken from the supplement of paper PMC7826260.
Some of the results follow. The data describe in vitro nicking of single-stranded DNA by Rep domains for 1 h at 37 °C with 3 µM enzyme; only the middle of the 90-letter strands is printed. Numbers give uncut DNA relative to the enzyme-free pool, as log2; uncut sequences lie near 0, cut ones below; no hit call is given. Counts are relative to all reads, so uncut sequences can rise above 0 when many others are cut.

What was measured:
Assay in all cases: uncleaved DNA left, log2 of reads against the no-enzyme library (log2 ratio); higher = less cleavage (more negative = more Rep cleavage of the k-mer); sequences stand for … in CTCGTCCG…ACCGGAGA
[1] = tested on: T1, Rep nickase domain of Muscovy duck circovirus
T1 sequence (protein, residues 1-111, tag omitted): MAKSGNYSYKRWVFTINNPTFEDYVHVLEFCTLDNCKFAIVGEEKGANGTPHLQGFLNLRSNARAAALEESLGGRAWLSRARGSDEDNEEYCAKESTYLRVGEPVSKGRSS
Description: (§1)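 A pool of 90-nt single-stranded DNAs with seven random bases just before the constant AC of the nick site (name = the seven bases) was cut by 3 µM recombinant His6-SUMO-tagged Rep nickase domain (300 nM DNA, 50 mM HEPES pH 8.0, 50 mM NaCl, 1 mM MnCl2, 1 h, 37 °C, three replicates). Uncut DNA was amplified and sequenced.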

[2] = tested on: T2, Rep nickase domain of banana bunchy top virus
T2 sequence (protein, residues 1-94, tag omitted): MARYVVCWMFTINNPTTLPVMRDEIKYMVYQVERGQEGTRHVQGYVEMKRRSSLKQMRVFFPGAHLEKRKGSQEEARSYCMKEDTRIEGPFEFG
Description: as §1

[3] = tested on: T3, Rep nickase domain of cabbage leaf curl virus
T3 sequence (protein, residues 1-116, tag omitted): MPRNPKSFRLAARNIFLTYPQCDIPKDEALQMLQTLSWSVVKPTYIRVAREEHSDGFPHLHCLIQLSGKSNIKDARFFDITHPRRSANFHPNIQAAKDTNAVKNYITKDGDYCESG
Description: as §1

[4] = tested on: T4, Rep nickase domain of chickpea chlorotic dwarf virus
T4 sequence (protein, residues 1-124, tag omitted): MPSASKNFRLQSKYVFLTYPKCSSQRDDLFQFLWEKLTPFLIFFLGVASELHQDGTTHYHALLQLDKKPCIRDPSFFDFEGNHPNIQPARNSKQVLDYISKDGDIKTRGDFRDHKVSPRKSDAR
Description: as §1

[5] = tested on: T5, Rep nickase domain of faba bean necrotic yellows virus
T5 sequence (protein, residues 1-98, tag omitted): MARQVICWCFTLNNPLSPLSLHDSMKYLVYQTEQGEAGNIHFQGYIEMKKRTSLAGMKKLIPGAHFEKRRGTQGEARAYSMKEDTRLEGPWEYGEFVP
Description: as §1

[6] = tested on: T6, Rep nickase domain of maize striate mosaic virus
T6 sequence (protein, residues 1-117, tag omitted): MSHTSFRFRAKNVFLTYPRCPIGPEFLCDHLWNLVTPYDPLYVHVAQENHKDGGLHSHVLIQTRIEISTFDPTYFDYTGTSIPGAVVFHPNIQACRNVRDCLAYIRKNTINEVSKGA
Description: as §1

[7] = tested on: T7, Rep nickase domain of porcine circovirus 2
T7 sequence (protein, residues 2-116, tag omitted): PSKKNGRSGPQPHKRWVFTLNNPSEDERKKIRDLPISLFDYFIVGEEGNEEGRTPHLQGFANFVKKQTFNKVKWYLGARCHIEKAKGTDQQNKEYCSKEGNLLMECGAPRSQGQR
Description: as §1

[8] = tested on: T8, Rep nickase domain of tomato golden mosaic virus
T8 sequence (protein, residues 1-124, tag omitted): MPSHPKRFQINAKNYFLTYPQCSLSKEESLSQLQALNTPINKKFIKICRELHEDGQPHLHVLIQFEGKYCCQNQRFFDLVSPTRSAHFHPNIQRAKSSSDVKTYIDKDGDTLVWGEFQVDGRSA
Description: as §1

[9] = tested on: T9, Rep nickase domain of tomato yellow leaf curl virus
T9 sequence (protein, residues 1-136, tag omitted): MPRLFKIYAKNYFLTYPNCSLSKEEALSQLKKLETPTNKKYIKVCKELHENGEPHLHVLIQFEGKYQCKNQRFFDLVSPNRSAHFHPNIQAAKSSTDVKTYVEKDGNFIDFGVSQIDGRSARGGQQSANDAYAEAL
Description: as §1

[10] = tested on: T10, Rep nickase domain of wheat dwarf virus
T10 sequence (protein, residues 1-137, tag omitted): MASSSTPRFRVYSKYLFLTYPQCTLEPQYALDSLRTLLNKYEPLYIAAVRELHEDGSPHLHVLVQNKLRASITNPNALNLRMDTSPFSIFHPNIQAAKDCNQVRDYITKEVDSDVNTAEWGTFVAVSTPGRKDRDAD
Description: as §1

Sequence	uncleaved DNA left (log2) [1]	uncleaved DNA left (log2) [2]	uncleaved DNA left (log2) [3]	uncleaved DNA left (log2) [4]	uncleaved DNA left (log2) [5]	uncleaved DNA left (log2) [6]	uncleaved DNA left (log2) [7]	uncleaved DNA left (log2) [8]	uncleaved DNA left (log2) [9]	uncleaved DNA left (log2) [10]
GCCCACT	-0.0601	-0.105	-0.0583	-1	-0.0465	-0.0521	-0.101	-0.074	-0.0105	0.205
TACCCCG	-0.209	-0.166	-1.1	-1.03	-0.149	-1.01	-1.65	-0.21	-0.295	-0.259
GCCGCCT	-0.065	-0.062	0.0339	-0.523	0.0405	0.0189	0.0698	-0.0968	-0.0354	-0.122
GCCTATG	-0.0819	0.116	-0.18	-0.0898	0.0364	-0.715	0.14	-0.0665	0.043	-0.028
TAAATCG	-0.00756	-0.0159	-0.958	-1.28	0.099	-1.33	0.208	-0.0108	-0.0346	-0.0876
GCTAAAG	-0.0285	0.0977	-0.566	-0.439	0.0121	-0.886	0.156	0.141	0.0591	0.0218
ACACAGC	-0.0032	-0.0435	-0.438	-0.454	-0.0549	-0.871	0.151	-0.0176	0.076	0.025
CTGTACG	0.178	-0.0405	-0.54	-0.3	-0.0431	-0.875	0.227	0.0214	0.0145	-0.0596
AGGGACG	0.12	0.124	0.0287	0.299	0.0753	0.0617	0.265	0.265	0.0819	0.0758
TGCTCCC	-0.147	-0.00166	0.221	0.102	-0.153	0.486	-0.15	-0.119	-0.0601	-0.0421
AAGACAA	0.17	0.169	0.351	0.642	0.101	0.785	0.104	0.146	0.106	0.281
CGACAGC	-0.0648	-0.101	-0.114	0.519	0.0104	0.964	-0.0168	-0.048	-0.149	-0.0309
CCCGGAA	0.0222	0.024	0.106	0.557	0.145	0.524	0.166	0.00705	-0.212	0.115
AGCCTCG	-0.0483	-0.0714	-0.485	-0.391	-0.138	-0.77	0.0651	-0.017	-0.0182	-0.161
GAAGTTT	0.00408	0.0558	-0.918	-2.04	0.0888	0.853	-0.574	-0.0546	0.126	-0.0753
CAATCTC	-0.166	0.0716	-2.73	-2.42	-0.0998	0.211	-0.197	-1.33	0.0837	-1.36
CCAACGA	0.0444	0.101	-0.298	-0.929	0.0824	-0.939	0.167	0.108	0.0772	-0.112
ATGGAAA	0.0722	0.0764	0.198	0.876	0.0861	0.666	0.237	0.131	0.0462	-0.00771
AAATTTC	-0.782	-0.0285	-3.21	-2.98	0.0588	-1.92	-1.22	-1.11	-0.0822	-1.29
TAGGCAC	0.0577	0.0337	-0.0377	0.4	-0.094	0.184	-0.0397	0.0443	-0.00321	0.161
TGAGACA	0.124	0.158	0.574	1.06	0.0845	1.7	0.22	0.0929	0.0851	0.108
GCACTAT	0.0579	-0.026	0.0675	-0.189	0.109	0.0689	-0.00376	0.129	-0.0569	0.0888
AAGTAAA	-0.0359	-0.0761	-0.0629	-0.345	0.124	-0.162	-2.99	0.124	-0.0309	0.0659
TCATTTC	0.0199	-0.000387	-0.237	-0.72	-0.176	-1.19	-0.0376	-0.0264	-0.0139	-0.0763
CATACGA	0.103	0.0643	-0.0138	-0.548	0.0461	-1	0.236	0.0143	0.0416	-0.0312
TATGGTT	0.0966	-0.126	-2.12	-1.96	-0.0452	1.19	-0.365	-0.132	-0.068	-0.0344
TAGTCCA	-0.0955	-0.626	-0.169	-2.18	-0.971	0.0981	-3.22	0.0708	0.219	0.153
TGTCAGT	0.0655	0.0695	-0.00728	0.105	-0.00892	-0.233	-0.477	-0.0481	0.0658	0.0135
TAACCAA	0.0325	0.184	-0.474	-2.27	0.0743	-0.411	-0.64	-0.0393	0.114	0.0149
GAGTCAC	-0.0517	0.102	0.226	0.907	-0.151	1.3	-1.7	-0.00914	0.0284	0.0678
